The values below come from the RNAGym collection of RNA variant scans (doi:10.7554/elife.90254).

B1: OR4K15 (parent)
chain: GUUAACGGUCAUAGGCCAUGGAAACUAGGAGCACCAUUUCGCUGCCAGUGAAGAAAUGAACAAAGAAAAUCUGGGCCAGGCAGGCAUCAAAAGAAAUAGUCUUGCGCUCAACCAGAAAGUCUGUAAUCAUUUUAAGGGUA

The source gives no read counts; variants with many changes may rest on few reads.

Variants of B1 are the subject of this data set. In words: self-cleavage, relative activity (ratio to wild type); higher = more cleavage; in vitro, sequencing; the parent is a self-cleaving ribozyme.
For A51U A52U A55G A68G, the self-cleavage came out at 1.09.

With A52G A90G U139A, the self-cleavage came out at 0.88.

On to G50U U108C A129G, for which the self-cleavage is 0.01. For A52U A69G A94G A117U G137A, the self-cleavage is 0.72. Next, A51U A96G C112G A140G: 0.01; U49G U72C A117G: 0.18; A51G A55G U131C A134G: 1.69. In the case of A51G A62G U108A U132C, the self-cleavage turned out to be 0. A51U A55G A118G: the self-cleavage came out at 0.83.

In the case of U49C U108C A118G, the self-cleavage is 0. For the variant G50A A82U A89U A90G A94U A111G, the self-cleavage was determined as 0.01. As for A51U U108G A140G, the self-cleavage was 0.01. For A51U A56G C81U, the self-cleavage stood at 0.57. Next, U49C U72A U100C: 0.63.

With A51U A52G A69G A78G, the self-cleavage was 0.13.

Turning to A51G A67G A96U A134G, the self-cleavage came out at 1.9.

As for A52G A126G U127C, the self-cleavage stood at 1.21. As for A51G U127C A140G, the self-cleavage was determined as 1.06. For A51G U57C A90G U102A C112U, the self-cleavage came out at 0. In the case of A52G U87C A90G U120C U132G it was 0.02; in that of U49C A67G A125G A126G U132A, 0.17; in that of A51G A54G A94G, 0.8. Regarding A52G C76G A116G, the self-cleavage was determined as 0.04. As to U49C A60G A82U A89G U100C U108C, the self-cleavage is 0.01. As to U49C A67G A135G, the self-cleavage turned out to be 1.89.

With U49C U124C U139C, the self-cleavage was 0.56. As to A51G A66G A82G A96G, the self-cleavage is 0.97. Next, U49C A96G U102G: 0.65.

Take A52G A82G A95G: the self-cleavage worked out at 1.49. For the variant A52U U102C A140G, the self-cleavage worked out at 1.76. With A51G A89G U122C, the self-cleavage worked out at 0.42.

On to A52G A78G G137A, for which the self-cleavage turned out to be 0.27. In the case of A52G A69G A89U, the self-cleavage amounted to 0.76.

Take A51G A114C A118G A140G: the self-cleavage worked out at 0.01. For A51G A56G A96G U122A U132A, the self-cleavage is 1.13. As to A51C A92G A114G, the self-cleavage turned out to be 0.25. In the case of A52G A92U G104A U130C it was 0.01; in that of A52G A69G U130C, 0.8; in that of A52G A68G A86G U108C, 0.03. Regarding A51G U122C A129U, the self-cleavage was found to be 1.21.

Turning to U49C U103C A114G, the self-cleavage is 0.06. In the case of U49C A67G U102A A118G U130G U139C, the self-cleavage was 0.25. Take A51G A56G A64U U132C: the self-cleavage was 0.74. In the case of A52G A62G A116G it was 0.66; in that of A52U A60G U70C, 0.65; in that of U49C A56U A116G, 0.19.

For the variant A51U A56G A67G, the self-cleavage is 1.02. Consider A52G A60G U130C, for which the self-cleavage amounted to 0.65. For the variant A52G A86G C109G A126G, the self-cleavage stood at 0. For A51G A78C A129U, the self-cleavage came to 0.17. Regarding A52G A92G A125G A129C, the self-cleavage worked out at 0.23. For the variant A52G A59G A134G, the self-cleavage was found to be 1.07. Next, A52G A89C A94G: 2.37; A52U A68G A78G U102A A111G: 0.04. In the case of U49C A67G A95G it was 1.79.

Regarding A51G A78G A95G U102A, the self-cleavage is 0.14.

On to A51G A52G A60G A116G G119A, for which the self-cleavage is 0.8. For the variant U49C U100G U127A, the self-cleavage was found to be 2.03. Next, A52G A56G A67G: 1.69. In the case of A52G A62G G74U G83A U120C it was 0.06; in that of A51U A54G A64G, 0.7.

As to A51G A98G U133C, the self-cleavage was determined as 0.88. On to A51G U57G A82G A92G U108C A134G, for which the self-cleavage turned out to be 0. Consider A52G U108C A117G, for which the self-cleavage came out at 0. In the case of A52G U57C A59U A67G U120A it was 1.19; in that of U49C A55U U108G A118U, 0.01.

In the case of A51G A59C A94G C101G, the self-cleavage came to 0.06. Consider A52G A118G U120C, for which the self-cleavage amounted to 0.27. With U49C A55G G115A, the self-cleavage was 0.

As to U49C A62G G75A, the self-cleavage came out at 0.11. In the case of U49C A82C A118C, the self-cleavage came out at 0.13. Next, A51G A82G A89G A111G: 0.04; A52G A59G A63G A68G U87A A92G: 1.87; A52G A55G A90G A91G A110G: 0.07. As to A51G A63G U100C U133C, the self-cleavage worked out at 2.35. As to U49C A95G U102C, the self-cleavage was determined as 2.95.

Take A52G A64G U102A A117G: the self-cleavage worked out at 1.

Take U49C A90G U124C: the self-cleavage was 0.33. With A52G U57C U133A, the self-cleavage amounted to 0.86.

A52G U57C U133C: the self-cleavage was 0.96. As for A52G A54G A78G A89G A94G U120C, the self-cleavage was 0.09. For the variant U49C A90U A95G U108C, the self-cleavage was 0.

With A51G A95U A111G U132C, the self-cleavage was determined as 0. Next, A52G A66G U103A: 1.5. Take A52G A59G U100A: the self-cleavage worked out at 0.16.

For the variant U49C A95G A118U A135G, the self-cleavage stood at 0.63. Take U49C U57A A78U: the self-cleavage was found to be 0.19. With A52G U132A U139A, the self-cleavage was 1.6.

In the case of G50A A67U A69G A96G U102C, the self-cleavage came out at 1.41. U49C A118G U120C U122C: the self-cleavage is 0.3. Next, A52G U102G U103C A111G: 0.03; A51U A89G A126G: 1.04; U49G A55U A86G A118G A126G: 0.22.

Regarding A51U A78U A94G, the self-cleavage is 0.36. Regarding A52G A96G U102C, the self-cleavage is 1.37. On to A52G A63U G80U, for which the self-cleavage was 0.18. For A51G A82G A111G, the self-cleavage is 0.05. Consider U49C A63G A140G, for which the self-cleavage came to 0.59. For the variant A51G A52G A92G A126G, the self-cleavage was found to be 0.86. For A51G A110G A114G, the self-cleavage is 0.09.

With A52G A66U U72C G80A, the self-cleavage came out at 0.16. For A51G A54G A82C A91G, the self-cleavage amounted to 0.07.

Take A52G A59U U70C: the self-cleavage was determined as 0.61. Regarding A52G A68G A134G, the self-cleavage stood at 1.24. In the case of A52U A95U A114G C121A, the self-cleavage came out at 1.22. As for A52U U122G A126G A129G, the self-cleavage worked out at 0.96. Regarding U49C A60G A86U, the self-cleavage stood at 1.49. For the variant A52G A111G U124C, the self-cleavage was determined as 0.03. Regarding A51G U87C A114U, the self-cleavage was found to be 0.14. Next, A52G U87G A92G U139C: 0.43; A51U A52G A67G U97C: 0.87; A52G A60G A118G A129G: 0.66. A51U A68G U103A A110G: the self-cleavage was 0.04.

With A51G A90G A118G, the self-cleavage came out at 0.34. Consider A51G A67G U70C, for which the self-cleavage stood at 0.6.

In the case of A52G A82U U87C U130C, the self-cleavage was found to be 0.07. With A52G U97A U120A, the self-cleavage turned out to be 2.96. Turning to A51G U70C A117G U122C, the self-cleavage worked out at 1.13.

As for A52G A55U A63G A90U, the self-cleavage was 2.01.

A51U U102A A135G: the self-cleavage is 0.83. For A52G A69G U102C, the self-cleavage is 1.53. As for A51C A60G A69G C105U, the self-cleavage turned out to be 0.14. Next, U49C A59G U87C: 0.57; U49C U122C A135G: 1.16; A52G G58A A89G A118G: 0.62. As for U49C A94G A117G, the self-cleavage turned out to be 1.24.

Take A51U A89U G99A: the self-cleavage was determined as 1.17. Take U49C A90G U130C: the self-cleavage was determined as 0.55.

As to A51U U97A A98G, the self-cleavage was 1.69. Turning to U49C A82G A91G A92G A111G, the self-cleavage was 0.01. Turning to A51U A56G A62G A114G, the self-cleavage turned out to be 0.25. As to U49C A116G A129G, the self-cleavage was determined as 0.29.

As for A52U U100C U103C, the self-cleavage was found to be 2.38. With U49C U102C U120C, the self-cleavage was found to be 1.32. A51G A52G U70C A90U U133C G138A U139C: the self-cleavage turned out to be 0.56. Next, A52G A59U A63G A89G: 0.48; A52G U87C U132C: 2.51. Consider U49C A66G U139A, for which the self-cleavage was 1.07.

For A52G A68G G73A U120C, the self-cleavage came out at 0.15. Regarding A52G A86G U87C, the self-cleavage is 1.27. As to A51G A60U A92G A95G, the self-cleavage was determined as 1.88. As for U49C A78U U102C U127C, the self-cleavage was determined as 0.35. U49C A62G U72A A82G: the self-cleavage is 0.25. Consider A51U A94G U102C, for which the self-cleavage is 1.97. As to A52U A95G U122C, the self-cleavage was 2.49. In the case of A52G A55U A67G it was 1.74. On to A52G A56G A68G A90G U103C U131C, for which the self-cleavage came out at 0.46.

Consider A51G A96U A135G, for which the self-cleavage came out at 2.29. U49C A69G A86G: the self-cleavage was found to be 1.02. As for U49C C76A A90G, the self-cleavage stood at 0.09. Regarding A51G A96G U103G, the self-cleavage was found to be 0.05. As for A52G A62G U127C, the self-cleavage stood at 0.81.

As to A52U A55G A64G, the self-cleavage is 1.32. Take A51G G106A A129C: the self-cleavage came to 0.03. Take A52G A55G U70C: the self-cleavage was determined as 0.26. Take A51G A56G U132C: the self-cleavage stood at 1.67. On to U49C A60G A66G A95G, for which the self-cleavage came out at 1.1. Take U49C A82U A90G A116G: the self-cleavage was found to be 0.04. With A51U A63G A111U, the self-cleavage was determined as 0.09.

For A51G A91G A134G U139C, the self-cleavage was determined as 1.24. Turning to A52G A63G A91U A117G, the self-cleavage was determined as 2.37. For A51G U102A U103C, the self-cleavage was 0.08. Turning to A51G A69G U70C, the self-cleavage was 0.34. As to A51G A82U A117G, the self-cleavage came out at 0.28. In the case of A51G A54G G75A it was 0.16; in that of A51U A59U U108A, 0.09. A51U A66G A78G A111G U130C: the self-cleavage worked out at 0.02.
